Results reported in PMC9911399, “Two distinct binding modes provide the RNA-binding protein RbFox with extraordinary sequence specificity”.
Substitutions are numbered along the chain they refer to; changes in the protein carry UniProt numbers. The list shows a part of the results.

T1: RBFOX1 RRM (Homo sapiens, UniProt Q9NWB1 109-208)
T1 sequence: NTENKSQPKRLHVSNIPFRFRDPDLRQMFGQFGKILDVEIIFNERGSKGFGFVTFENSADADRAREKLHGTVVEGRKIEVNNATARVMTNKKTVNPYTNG

B1: CGCAUGC (DNA:RNA)
RNA: GGGAGACCGGAAUUCAGAUUGUCCCGCAUGCUUAAAUCCCGUCGUAGCCACCA
DNA 1: CAATCTGAATTCCGGTCTCCC
DNA 2: TGGTGGCTACGACGGGATT
B2: UUACGUG (DNA:RNA)
RNA: GGGAGACCGGAAUUCAGAUUGUCCUUACGUGUUAAAUCCCGUCGUAGCCACCA
DNA 1: CAATCTGAATTCCGGTCTCCC
DNA 2: TGGTGGCTACGACGGGATT
B3: CAACUCC (DNA:RNA)
RNA: B1 RNA with G26A, C27A, A28C, G30C
DNA 1: CAATCTGAATTCCGGTCTCCC
DNA 2: TGGTGGCTACGACGGGATT
B4: UUACCCG (DNA:RNA)
RNA: B2 RNA with G29C, U30C
DNA 1: CAATCTGAATTCCGGTCTCCC
DNA 2: TGGTGGCTACGACGGGATT
B5: UAACAAC (DNA:RNA)
RNA: B2 RNA with U26A, G29A, U30A, G31C
DNA 1: CAATCTGAATTCCGGTCTCCC
DNA 2: TGGTGGCTACGACGGGATT
B6: CGAUAGU (DNA:RNA)
RNA: B1 RNA with C27A, A28U, U29A, C31U
DNA 1: CAATCTGAATTCCGGTCTCCC
DNA 2: TGGTGGCTACGACGGGATT
B7: GUGGCUA (DNA:RNA)
RNA: B2 RNA with U25G, A27G, C28G, G29C, G31A
DNA 1: CAATCTGAATTCCGGTCTCCC
DNA 2: TGGTGGCTACGACGGGATT
B8: GUCUGCC (DNA:RNA)
RNA: B1 RNA with C25G, G26U, A28U, U29G, G30C
DNA 1: CAATCTGAATTCCGGTCTCCC
DNA 2: TGGTGGCTACGACGGGATT
B9: CACAAGA (DNA:RNA)
RNA: B1 RNA with G26A, U29A, C31A
DNA 1: CAATCTGAATTCCGGTCTCCC
DNA 2: TGGTGGCTACGACGGGATT
B10: UACUGAC (DNA:RNA)
RNA: B1 RNA with C25U, G26A, A28U, U29G, G30A
DNA 1: CAATCTGAATTCCGGTCTCCC
DNA 2: TGGTGGCTACGACGGGATT
B11: CUUAGCG (DNA:RNA)
RNA: B2 RNA with U25C, A27U, C28A, U30C
DNA 1: CAATCTGAATTCCGGTCTCCC
DNA 2: TGGTGGCTACGACGGGATT
B12: GCCUGGG (DNA:RNA)
RNA: B1 RNA with C25G, G26C, A28U, U29G, C31G
DNA 1: CAATCTGAATTCCGGTCTCCC
DNA 2: TGGTGGCTACGACGGGATT
B13: AGGCACA (DNA:RNA)
RNA: B1 RNA with C25A, C27G, A28C, U29A, G30C, C31A
DNA 1: CAATCTGAATTCCGGTCTCCC
DNA 2: TGGTGGCTACGACGGGATT
B14: UGCGCGU (DNA:RNA)
RNA: B1 RNA with C25U, A28G, U29C, C31U
DNA 1: CAATCTGAATTCCGGTCTCCC
DNA 2: TGGTGGCTACGACGGGATT
B15: UAUCGUU (DNA:RNA)
RNA: B2 RNA with U26A, A27U, G31U
DNA 1: CAATCTGAATTCCGGTCTCCC
DNA 2: TGGTGGCTACGACGGGATT
B16: CACUAGA (DNA:RNA)
RNA: B1 RNA with G26A, A28U, U29A, C31A
DNA 1: CAATCTGAATTCCGGTCTCCC
DNA 2: TGGTGGCTACGACGGGATT
B17: ACGGUAG (DNA:RNA)
RNA: B1 RNA with C25A, G26C, C27G, A28G, G30A, C31G
DNA 1: CAATCTGAATTCCGGTCTCCC
DNA 2: TGGTGGCTACGACGGGATT
B18: GAUAUCG (DNA:RNA)
RNA: B1 RNA with C25G, G26A, C27U, G30C, C31G
DNA 1: CAATCTGAATTCCGGTCTCCC
DNA 2: TGGTGGCTACGACGGGATT
B19: ACGUGUG (DNA:RNA)
RNA: B2 RNA with U25A, U26C, A27G, C28U
DNA 1: CAATCTGAATTCCGGTCTCCC
DNA 2: TGGTGGCTACGACGGGATT
B20: UCGGGUU (DNA:RNA)
RNA: B2 RNA with U26C, A27G, C28G, G31U
DNA 1: CAATCTGAATTCCGGTCTCCC
DNA 2: TGGTGGCTACGACGGGATT

What follows are binders tested against T1, RBFOX1 RRM (assay: EMSA; HiTS-Eq, 1 nM pool, 10 min; buffer printed only for the single-RNA assays: 10 mM Tris pH 7.5, 150 mM NaCl, 3.4 mM EDTA, 0.001% NP-40, 30 C). Conditions: tags: His6 N-terminal (pET28a); label: 5' 32P.
Procedure, shortened: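 These values rest on relative association constants, computed from read-count changes of each RNA species versus the control reaction and normalised to the cognate motif. Reads came from free RNA recovered by 8% native PAGE after purified RbFox RRM (wild type or mutant) at increasing concentrations was equilibrated for 10 min in 50 µL with 1 nM of a 5′-radiolabelled pool with 7 randomized nucleotides and DNA-annealed flanks.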

Binder | binding signal
B1 | 0.895 KA relative to UGCAUGU
B2 | 0.0211 KA relative to UGCAUGU
B3 | 0.00142 KA relative to UGCAUGU
B4 | 0.00422 KA relative to UGCAUGU
B5 | 0.00166 KA relative to UGCAUGU
B6 | 0.0116 KA relative to UGCAUGU
B7 | 0.014 KA relative to UGCAUGU
B8 | 0.0216 KA relative to UGCAUGU
B9 | 0.003 KA relative to UGCAUGU
B10 | 0.00869 KA relative to UGCAUGU
B11 | 0.0108 KA relative to UGCAUGU
B12 | 0.0219 KA relative to UGCAUGU
B13 | 0.00777 KA relative to UGCAUGU
B14 | 0.0288 KA relative to UGCAUGU
B15 | 0.00892 KA relative to UGCAUGU
B16 | 0.00364 KA relative to UGCAUGU
B17 | 0.0129 KA relative to UGCAUGU
B18 | 0.0155 KA relative to UGCAUGU
B19 | 0.0169 KA relative to UGCAUGU
B20 | 0.0195 KA relative to UGCAUGU
